Laboratory results from publication PMC4440769.
These are yes or no findings as the source states them, for the method shown. Binding seen in cells or lysates may run through a third protein. Some results given as binding are weak or reduced against the parent protein; the word gives no strength. For some of these results: Sequences can lack the tags named with a protein.

By UniProt entry, the sequences of proteins in these tests, tags left out.
UniProt Q9Y6K9: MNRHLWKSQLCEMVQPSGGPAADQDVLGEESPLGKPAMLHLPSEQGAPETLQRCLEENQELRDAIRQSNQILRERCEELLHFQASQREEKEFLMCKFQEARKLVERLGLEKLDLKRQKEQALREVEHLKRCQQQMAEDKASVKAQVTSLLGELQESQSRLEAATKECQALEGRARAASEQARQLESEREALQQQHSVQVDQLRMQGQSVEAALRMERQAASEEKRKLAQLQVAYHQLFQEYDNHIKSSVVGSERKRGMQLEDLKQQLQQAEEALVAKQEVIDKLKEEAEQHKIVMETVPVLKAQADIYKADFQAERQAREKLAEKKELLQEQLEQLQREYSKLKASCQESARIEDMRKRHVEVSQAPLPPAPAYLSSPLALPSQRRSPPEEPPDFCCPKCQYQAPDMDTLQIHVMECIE
UniProt Q15025: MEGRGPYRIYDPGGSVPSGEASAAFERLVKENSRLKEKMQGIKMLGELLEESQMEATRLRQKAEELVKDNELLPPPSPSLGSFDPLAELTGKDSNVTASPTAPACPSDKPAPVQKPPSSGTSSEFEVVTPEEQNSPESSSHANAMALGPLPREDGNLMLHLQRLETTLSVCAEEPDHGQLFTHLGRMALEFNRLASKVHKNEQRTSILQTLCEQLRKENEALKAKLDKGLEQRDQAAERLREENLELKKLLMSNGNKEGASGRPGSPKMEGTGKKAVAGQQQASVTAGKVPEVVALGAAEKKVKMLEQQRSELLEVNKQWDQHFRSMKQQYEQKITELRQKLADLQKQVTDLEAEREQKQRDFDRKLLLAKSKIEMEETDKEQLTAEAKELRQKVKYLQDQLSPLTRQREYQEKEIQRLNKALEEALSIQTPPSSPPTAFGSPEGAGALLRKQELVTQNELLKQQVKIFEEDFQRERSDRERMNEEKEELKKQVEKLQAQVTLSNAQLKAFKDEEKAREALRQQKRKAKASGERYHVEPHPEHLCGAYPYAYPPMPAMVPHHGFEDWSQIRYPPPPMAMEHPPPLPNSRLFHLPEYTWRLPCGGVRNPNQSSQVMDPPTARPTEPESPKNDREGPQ
UniProt Q96EP0: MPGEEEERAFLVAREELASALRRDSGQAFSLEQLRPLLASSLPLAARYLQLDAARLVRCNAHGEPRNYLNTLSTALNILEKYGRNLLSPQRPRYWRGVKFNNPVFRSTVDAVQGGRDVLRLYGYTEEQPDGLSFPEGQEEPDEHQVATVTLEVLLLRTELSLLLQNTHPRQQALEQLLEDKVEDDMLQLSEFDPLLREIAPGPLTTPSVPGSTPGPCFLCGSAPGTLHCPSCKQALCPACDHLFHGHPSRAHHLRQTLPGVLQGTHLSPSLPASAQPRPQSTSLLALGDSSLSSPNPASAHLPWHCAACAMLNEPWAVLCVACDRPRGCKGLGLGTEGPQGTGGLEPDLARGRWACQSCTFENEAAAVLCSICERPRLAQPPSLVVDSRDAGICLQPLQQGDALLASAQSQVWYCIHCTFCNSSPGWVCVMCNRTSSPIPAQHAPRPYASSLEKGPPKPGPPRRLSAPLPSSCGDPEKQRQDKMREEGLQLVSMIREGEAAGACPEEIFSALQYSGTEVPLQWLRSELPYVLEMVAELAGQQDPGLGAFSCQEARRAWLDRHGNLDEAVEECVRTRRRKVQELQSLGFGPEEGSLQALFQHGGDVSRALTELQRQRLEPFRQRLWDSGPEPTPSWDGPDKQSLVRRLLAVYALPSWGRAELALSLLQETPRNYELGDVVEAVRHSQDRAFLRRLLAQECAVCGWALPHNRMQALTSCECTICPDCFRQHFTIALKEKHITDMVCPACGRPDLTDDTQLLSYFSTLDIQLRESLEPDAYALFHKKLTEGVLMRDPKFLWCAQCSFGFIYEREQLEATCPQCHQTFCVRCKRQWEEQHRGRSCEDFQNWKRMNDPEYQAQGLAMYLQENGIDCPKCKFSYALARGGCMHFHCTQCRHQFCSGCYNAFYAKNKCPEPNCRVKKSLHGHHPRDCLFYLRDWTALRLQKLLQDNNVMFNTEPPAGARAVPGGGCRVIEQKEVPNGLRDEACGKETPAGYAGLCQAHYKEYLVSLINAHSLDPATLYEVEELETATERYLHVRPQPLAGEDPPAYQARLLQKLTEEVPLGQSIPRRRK
UniProt P03230: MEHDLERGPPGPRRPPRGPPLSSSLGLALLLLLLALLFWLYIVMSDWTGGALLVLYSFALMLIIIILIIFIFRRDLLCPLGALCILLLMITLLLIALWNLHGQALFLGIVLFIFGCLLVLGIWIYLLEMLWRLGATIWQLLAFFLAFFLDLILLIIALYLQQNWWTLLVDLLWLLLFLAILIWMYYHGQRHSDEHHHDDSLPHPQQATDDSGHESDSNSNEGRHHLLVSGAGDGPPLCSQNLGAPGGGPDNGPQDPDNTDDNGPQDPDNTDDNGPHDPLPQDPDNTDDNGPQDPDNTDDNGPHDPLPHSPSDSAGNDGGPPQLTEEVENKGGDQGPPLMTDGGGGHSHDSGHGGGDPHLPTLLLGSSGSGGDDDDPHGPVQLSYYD

T1: FLAG-TRAF1 (UniProt Q13077)
T1 sequence: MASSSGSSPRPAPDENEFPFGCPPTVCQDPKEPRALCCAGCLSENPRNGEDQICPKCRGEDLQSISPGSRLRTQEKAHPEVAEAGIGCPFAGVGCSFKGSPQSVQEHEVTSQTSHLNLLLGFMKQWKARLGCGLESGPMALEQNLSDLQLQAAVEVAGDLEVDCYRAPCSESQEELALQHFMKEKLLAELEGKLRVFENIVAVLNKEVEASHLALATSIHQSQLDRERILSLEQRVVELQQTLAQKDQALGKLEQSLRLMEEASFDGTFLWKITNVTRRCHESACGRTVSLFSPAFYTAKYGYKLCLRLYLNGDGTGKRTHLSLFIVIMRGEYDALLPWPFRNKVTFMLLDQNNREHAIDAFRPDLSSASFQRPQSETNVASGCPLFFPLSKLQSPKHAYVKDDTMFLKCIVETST

T2: FLAG-TRAF1 (GM12878) (UniProt Q13077)
T2 sequence: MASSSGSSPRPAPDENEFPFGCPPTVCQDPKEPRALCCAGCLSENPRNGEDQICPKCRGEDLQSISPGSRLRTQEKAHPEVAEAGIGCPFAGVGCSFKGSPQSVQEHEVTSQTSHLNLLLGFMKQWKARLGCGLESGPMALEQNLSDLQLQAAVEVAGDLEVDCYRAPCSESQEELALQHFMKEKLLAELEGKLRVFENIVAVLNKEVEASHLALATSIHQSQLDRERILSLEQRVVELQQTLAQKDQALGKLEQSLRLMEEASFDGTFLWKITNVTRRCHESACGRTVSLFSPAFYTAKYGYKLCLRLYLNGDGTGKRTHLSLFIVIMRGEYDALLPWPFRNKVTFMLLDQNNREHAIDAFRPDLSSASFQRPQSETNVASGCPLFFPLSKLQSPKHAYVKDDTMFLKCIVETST

T3: HA-SHARPIN (UniProt Q9H0F6)
T3 sequence: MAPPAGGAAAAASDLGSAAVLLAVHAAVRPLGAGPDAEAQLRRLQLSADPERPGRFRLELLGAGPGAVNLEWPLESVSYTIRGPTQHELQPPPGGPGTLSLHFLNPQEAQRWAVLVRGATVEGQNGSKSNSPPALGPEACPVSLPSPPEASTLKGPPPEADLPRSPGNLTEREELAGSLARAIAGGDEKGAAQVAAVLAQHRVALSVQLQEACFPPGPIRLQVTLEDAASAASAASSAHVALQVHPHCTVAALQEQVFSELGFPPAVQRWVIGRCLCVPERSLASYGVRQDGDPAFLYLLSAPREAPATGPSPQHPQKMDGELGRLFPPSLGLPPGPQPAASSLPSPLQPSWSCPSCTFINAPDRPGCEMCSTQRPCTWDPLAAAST


Tests used:
FLAG-TRAF1 = target: T1, FLAG-TRAF1; assay: co-IP
FLAG-TRAF1 (GM12878) = target: T2, FLAG-TRAF1 (GM12878); assay: co-IP; anti-FLAG immuno-purification from GM12878 LCLs with stable FLAG-TRAF1 or FLAG-GFP expression, western blot
HA-SHARPIN = target: T3, HA-SHARPIN; assay: co-IP; HA immuno-purification from GM12878 stable cell lines (HA-SHARPIN, HA-IKK-gamma, HA-GFP), western blot
FLAG-TRAF1 264–416 = FLAG-TRAF1 264–416 (UniProt Q13077); assay: co-IP
HA-tagged IKK-gamma = HA-tagged IKK-gamma (UniProt Q9Y6K9); assay: co-IP; HA immuno-purification from GM12878 stable cell lines (HA-SHARPIN, HA-IKK-gamma, HA-GFP), western blot

Row | binding (FLAG-TRAF1) | binding (FLAG-TRAF1 (GM12878)) | Molecule | further results
1 | – | binds | IKK-gamma (endogenous, GM12878) (from UniProt Q9Y6K9 1-419) | –
2 | binds | – | SHARPIN (endogenous, 293) (protein, UniProt Q9H0F6 1-387) MAPPAGGAAAAASDLGSAAVLLAVHAAVRPLGAGPDAEAQLRRLQLSADPERPGRFRLELLGAGPGAVNLEWPLESVSYTIRGPTQHELQPPPGGPGTLSLHFLNPQEAQRWAVLVRGATVEGQNGSKSNSPPALGPEACPVSLPSPPEASTLKGPPPEADLPRSPGNLTEREELAGSLARAIAGGDEKGAAQVAAVLAQHRVALSVQLQEACFPPGPIRLQVTLEDAASAASAASSAHVALQVHPHCTVAALQEQVFSELGFPPAVQRWVIGRCLCVPERSLASYGVRQDGDPAFLYLLSAPREAPATGPSPQHPQKMDGELGRLFPPSLGLPPGPQPAASSLPSPLQPSWSCPSCTFINAPDRPGCEMCSTQRPCTWDPLAAAST | –

More lines, now with the values behind:

Row | Molecule | binding (FLAG-TRAF1) | binding (FLAG-TRAF1 (GM12878)) | further results
3 | ABIN1 (endogenous, 293) (from UniProt Q15025 1-636) | binds | – | –
4 | HOIP (endogenous, 293) (from UniProt Q96EP0 1-1072) | binds | – | –
5 | HOIP (endogenous, GM12878) (from UniProt Q96EP0 1-1072) | – | binds | –
6 | Latent Membrane Protein 1 (LMP1), untagged, in GM12878 (from UniProt P03230 1-386) | – | – | binding (HA-SHARPIN): binds
7 | untagged wildtype LMP1 (transfected) (from UniProt P03230) | – | – | binding (FLAG-TRAF1 264–416): no binding
8 | SHARPIN (endogenous, GM12878) (protein, UniProt Q9H0F6 1-387) MAPPAGGAAAAASDLGSAAVLLAVHAAVRPLGAGPDAEAQLRRLQLSADPERPGRFRLELLGAGPGAVNLEWPLESVSYTIRGPTQHELQPPPGGPGTLSLHFLNPQEAQRWAVLVRGATVEGQNGSKSNSPPALGPEACPVSLPSPPEASTLKGPPPEADLPRSPGNLTEREELAGSLARAIAGGDEKGAAQVAAVLAQHRVALSVQLQEACFPPGPIRLQVTLEDAASAASAASSAHVALQVHPHCTVAALQEQVFSELGFPPAVQRWVIGRCLCVPERSLASYGVRQDGDPAFLYLLSAPREAPATGPSPQHPQKMDGELGRLFPPSLGLPPGPQPAASSLPSPLQPSWSCPSCTFINAPDRPGCEMCSTQRPCTWDPLAAAST | – | binds | –
9 | TRAF1 (endogenous, GM12878) (protein, UniProt Q13077 1-416) MASSSGSSPRPAPDENEFPFGCPPTVCQDPKEPRALCCAGCLSENPRNGEDQICPKCRGEDLQSISPGSRLRTQEKAHPEVAEAGIGCPFAGVGCSFKGSPQSVQEHEVTSQTSHLNLLLGFMKQWKARLGCGLESGPMALEQNLSDLQLQAAVEVAGDLEVDCYRAPCSESQEELALQHFMKEKLLAELEGKLRVFENIVAVLNKEVEASHLALATSIHQSQLDRERILSLEQRVVELQQTLAQKDQALGKLEQSLRLMEEASFDGTFLWKITNVTRRCHESACGRTVSLFSPAFYTAKYGYKLCLRLYLNGDGTGKRTHLSLFIVIMRGEYDALLPWPFRNKVTFMLLDQNNREHAIDAFRPDLSSASFQRPQSETNVASGCPLFFPLSKLQSPKHAYVKDDTMFLKCIVETST | – | – | binding (HA-tagged IKK-gamma): binds; binding (HA-SHARPIN): binds
